Source: the supplement of paper PMC4996465

How the values were obtained:
Nalm-6 = assay: viability (% of DMSO control); higher = more viable cells
Experimental: (§1)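 Eleven-dose screen of the NCATS MIPE 3 library on cells without co-treatment; CellTiter-Glo after 48 h, as % of DMSO wells.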

KB3-1 = assay: as above
Experimental: as §1

| Structure (SMILES) | viability (Nalm-6; run: 1, 0.00078 µM) [%] | viability (Nalm-6; run: 1, 0.00234 µM) [%] | viability (Nalm-6; run: 1, 0.00702 µM) [%] | viability (Nalm-6; run: 1, 0.0211 µM) [%] | viability (Nalm-6; run: 1, 0.0632 µM) [%] | viability (Nalm-6; run: 1, 0.19 µM) [%] | viability (Nalm-6; run: 1, 0.569 µM) [%] | viability (Nalm-6; run: 1, 1.71 µM) [%] | viability (Nalm-6; run: 1, 5.12 µM) [%] | viability (Nalm-6; run: 1, 15.4 µM) [%] | viability (Nalm-6; run: 1, 46.1 µM) [%] | viability (Nalm-6; run: 2, 0.00078 µM) [%] | viability (Nalm-6; run: 2, 0.00234 µM) [%] | viability (Nalm-6; run: 2, 0.00702 µM) [%] | viability (Nalm-6; run: 2, 0.0211 µM) [%] | viability (Nalm-6; run: 2, 0.0632 µM) [%] | viability (Nalm-6; run: 2, 0.19 µM) [%] | viability (Nalm-6; run: 2, 0.569 µM) [%] | viability (Nalm-6; run: 2, 1.71 µM) [%] | viability (Nalm-6; run: 2, 5.12 µM) [%] | viability (Nalm-6; run: 2, 15.4 µM) [%] | viability (Nalm-6; run: 2, 46.1 µM) [%] | viability (KB3-1; 0.00078 µM) [%] | viability (KB3-1; 0.00234 µM) [%] | viability (KB3-1; 0.00702 µM) [%] | viability (KB3-1; 0.0211 µM) [%] | viability (KB3-1; 0.0632 µM) [%] | viability (KB3-1; 0.19 µM) [%] | viability (KB3-1; 0.569 µM) [%] | viability (KB3-1; 1.71 µM) [%] | viability (KB3-1; 5.12 µM) [%] | viability (KB3-1; 15.4 µM) [%] | viability (KB3-1; 46.1 µM) [%] |
| --- | --- | --- | --- | --- | --- | --- | --- | --- | --- | --- | --- | --- | --- | --- | --- | --- | --- | --- | --- | --- | --- | --- | --- | --- | --- | --- | --- | --- | --- | --- | --- | --- | --- |
| CCN(CC)CCn1c(=O)c(Cc2ccc(OC)cc2)nc2ccccc21 [Caroverine hydrochloride] | 121 | 134 | 108 | 123 | 121 | 115 | 116 | 119 | 107 | 109 | 91.2 | 105 | 109 | 105 | 110 | 108 | 104 | 104 | 104 | 103 | 103 | 87.2 | 107 | 104 | 106 | 108 | 108 | 107 | 97.1 | 102 | 98.4 | 103 | 91.7 |
| O=C(NCC[S+](=O)([O-])c1ccc(C(F)(F)F)cn1)c1ccc(Cl)cc1 [GSK-3787] | 102 | 106 | 114 | 110 | 108 | 105 | 117 | 116 | 111 | 108 | 101 | 113 | 106 | 107 | 101 | 96.8 | 111 | 109 | 99.9 | 107 | 103 | 102 | 103 | 104 | 107 | 102 | 103 | 110 | 103 | 95.6 | 106 | 105 | 103 |
| Cc1cc(SCc2sc(-c3ccc(C(F)(F)F)cc3)nc2C)ccc1OCC(=O)O | 105 | 106 | 113 | 107 | 101 | 114 | 118 | 119 | 119 | 120 | 77.6 | 107 | 103 | 98.2 | 105 | 107 | 105 | 106 | 115 | 116 | 111 | 82.7 | 92.8 | 104 | 97.6 | 106 | 101 | 102 | 102 | 98.7 | 100 | 106 | 88 |
| Nc1ncnc2nc(-c3ccc(N4CCOCC4)nc3)cc(-c3cccc(Br)c3)c12 [ABT-702] | 83 | 76.4 | 82.1 | 94.2 | 97.3 | 109 | 108 | 114 | 114 | 103 | 58.7 | 109 | 114 | 112 | 116 | 110 | 114 | 105 | 111 | 105 | 104 | 57.6 | 103 | 106 | 101 | 105 | 108 | 110 | 107 | 103 | 106 | 104 | 74.6 |
| CC(C)(C)c1cc(C(=O)O)c(NC(=O)Nc2ccc3[nH]ncc3c2)s1 [S6K-18] | 115 | 121 | 119 | 115 | 115 | 117 | 118 | 115 | 108 | 108 | 119 | 108 | 111 | 111 | 111 | 109 | 103 | 104 | 111 | 109 | 107 | 103 | 97.3 | 100 | 99.8 | 97.3 | 103 | 94.7 | 100 | 99.5 | 97.9 | 100 | 104 |
| OCCn1cc(-c2cnc3nnn(Cc4ccc5ncccc5c4)c3n2)cn1 | 3.61 | 125 | 112 | 116 | 118 | 119 | 112 | 117 | 120 | 107 | 87.2 | 115 | 118 | 110 | 107 | 112 | 111 | 109 | 105 | 108 | 106 | 102 | 102 | 102 | 94.7 | 96 | 94.8 | 95.9 | 94.6 | 98 | 99.7 | 101 | 96.6 |

Where a name gives a salt, the structure may show the parent alone. Viability of KB3-1 and Nalm-6 cells after 48 h of drug alone (CellTiter-Glo), 11 doses over about 4.5 log units. % of DMSO wells, lower = more cell loss; AC50 from the fitted curve, lower = more potent. No active / inactive call. Nalm-6 was screened in two runs. AC50 is listed only for well-fitted inhibitory curves. KB3-1 is a HeLa-derived carcinoma line, Nalm-6 a B-cell precursor leukaemia line.
